Experimental data: PMC7363125
Results are given in words; binding and its absence hold for the method and conditions named. In cells and extracts the contact can be indirect. Some results given as binding are weak or reduced against the parent protein; the word gives no strength. Where a sequence is shown, tags or fusion partners need not be part of it.

Tests used:
Experiment in all cases: pull-down; 5 ug GST-PLEKHA7 WW bait (E. coli) coupled to GSH-Sepharose beads, washed, incubated 1 h at 4 °C with normalized HEK cell lysate holding PDZD11-HA or CFP-HA; immunoblot with anti-HA; only the target purified
[1] = target: T1, GST-PLEKHA7 WW1 + WW2 domain (1-162) V19A (human) (UniProt Q6IQ23)
T1 sequence: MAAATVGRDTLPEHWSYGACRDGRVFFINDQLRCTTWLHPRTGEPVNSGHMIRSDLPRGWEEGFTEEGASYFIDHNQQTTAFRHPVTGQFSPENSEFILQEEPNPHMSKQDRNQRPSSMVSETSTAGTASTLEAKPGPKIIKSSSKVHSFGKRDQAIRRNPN

[2] = target: T2, GST-PLEKHA7 WW1 + WW2 domain (1-162), mutation within the WW2 domain at position 65 (human) (UniProt Q6IQ23)
T2 sequence: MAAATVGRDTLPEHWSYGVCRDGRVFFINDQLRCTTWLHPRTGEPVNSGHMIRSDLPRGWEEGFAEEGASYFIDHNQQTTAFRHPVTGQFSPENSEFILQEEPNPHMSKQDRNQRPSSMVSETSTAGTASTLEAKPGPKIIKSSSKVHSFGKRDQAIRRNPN

[3] = target: T3, GST-PLEKHA7 WW1 + WW2 domain (1-162), mutation within the WW2 domain at position 85 (human) (UniProt Q6IQ23)
T3 sequence: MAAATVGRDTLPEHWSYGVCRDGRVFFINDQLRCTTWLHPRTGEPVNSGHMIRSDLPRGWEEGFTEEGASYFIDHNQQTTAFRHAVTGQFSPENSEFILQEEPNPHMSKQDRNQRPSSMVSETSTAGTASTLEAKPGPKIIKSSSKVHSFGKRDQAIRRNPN

[4] = target: T4, GST-PLEKHA7 WW1 + WW2 domain (1-162) D30A + H75A (human) (UniProt Q6IQ23)
T4 sequence: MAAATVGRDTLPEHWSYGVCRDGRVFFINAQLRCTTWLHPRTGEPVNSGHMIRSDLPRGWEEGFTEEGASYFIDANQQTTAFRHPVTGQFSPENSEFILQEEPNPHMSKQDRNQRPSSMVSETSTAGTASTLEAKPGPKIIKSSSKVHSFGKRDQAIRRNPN

[5] = target: T5, GST-PLEKHA7 WW1 + WW2 domain (1-162) R33A + N76A (human) (UniProt Q6IQ23)
T5 sequence: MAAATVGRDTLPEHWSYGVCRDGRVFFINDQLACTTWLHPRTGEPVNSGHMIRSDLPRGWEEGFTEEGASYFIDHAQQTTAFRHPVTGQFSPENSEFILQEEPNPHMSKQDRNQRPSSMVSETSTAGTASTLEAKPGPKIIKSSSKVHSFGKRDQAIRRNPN

[6] = target: T6, GST-PLEKHA7 WW1 + WW2 domain (1-162) T35A + N76A (human) (UniProt Q6IQ23)
T6 sequence: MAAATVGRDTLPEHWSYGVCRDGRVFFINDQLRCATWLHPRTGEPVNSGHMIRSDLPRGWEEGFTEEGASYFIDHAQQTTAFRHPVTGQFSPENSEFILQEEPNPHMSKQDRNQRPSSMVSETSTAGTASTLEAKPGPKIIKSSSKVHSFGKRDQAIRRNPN

[7] = target: T7, GST-PLEKHA7 WW1 domain (residues 1-56) W15A (human) (UniProt Q6IQ23)
T7 sequence: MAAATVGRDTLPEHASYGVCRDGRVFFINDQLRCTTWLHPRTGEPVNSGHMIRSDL

[8] = target: T8, GST-PLEKHA7 WW1 domain (residues 1-56) L32A (human) (UniProt Q6IQ23)
T8 sequence: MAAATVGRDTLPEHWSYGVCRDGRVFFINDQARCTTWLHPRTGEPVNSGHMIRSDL

[9] = target: T9, GST-PLEKHA7 WW1 + WW2 domain (1-162) N29A (human) (UniProt Q6IQ23)
T9 sequence: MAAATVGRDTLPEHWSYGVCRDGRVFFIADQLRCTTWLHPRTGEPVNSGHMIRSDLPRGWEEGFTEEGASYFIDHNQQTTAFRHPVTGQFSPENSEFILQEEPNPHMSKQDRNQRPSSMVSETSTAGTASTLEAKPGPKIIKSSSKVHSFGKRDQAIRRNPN

- binding [1]: binds
- binding [2]: binds
- binding [3]: binds
- binding [4]: no binding
- binding [5]: binds
- binding [6]: binds
- binding [7]: no binding
- binding [8]: binds
- binding [9]: binds
B1: PDZD11-HA (human) full-length (protein, UniProt Q5EBL8 1-140)
chain: MDSRIPYDDYPVVFLPAYENPPAWIPPHERVHHPDYNNELTQFLPRTITLKKPPGAQLGFNIRGGKASQLGIFISKVIPDSDAHRAGLQEGDQVLAVNDVDFQDIEHSKAVEILKTAREISMRVRFFPYNYHRQKERTVH
